Reference: publication PMC5973263
Results are given in words; binding and its absence hold for the method and conditions named. In cells and extracts the contact can be indirect. Some binding calls cover weakened binding; strength is not graded here.

By UniProt entry, the sequences of proteins in these tests, tags left out. Where a name states a change or a piece, a line headed by the entry shows the natural chain unless it says otherwise. Chains listed by the source or under a name are the forms on record and can include a tag or linker. Residues count along the entry.
UniProt D4A5I9: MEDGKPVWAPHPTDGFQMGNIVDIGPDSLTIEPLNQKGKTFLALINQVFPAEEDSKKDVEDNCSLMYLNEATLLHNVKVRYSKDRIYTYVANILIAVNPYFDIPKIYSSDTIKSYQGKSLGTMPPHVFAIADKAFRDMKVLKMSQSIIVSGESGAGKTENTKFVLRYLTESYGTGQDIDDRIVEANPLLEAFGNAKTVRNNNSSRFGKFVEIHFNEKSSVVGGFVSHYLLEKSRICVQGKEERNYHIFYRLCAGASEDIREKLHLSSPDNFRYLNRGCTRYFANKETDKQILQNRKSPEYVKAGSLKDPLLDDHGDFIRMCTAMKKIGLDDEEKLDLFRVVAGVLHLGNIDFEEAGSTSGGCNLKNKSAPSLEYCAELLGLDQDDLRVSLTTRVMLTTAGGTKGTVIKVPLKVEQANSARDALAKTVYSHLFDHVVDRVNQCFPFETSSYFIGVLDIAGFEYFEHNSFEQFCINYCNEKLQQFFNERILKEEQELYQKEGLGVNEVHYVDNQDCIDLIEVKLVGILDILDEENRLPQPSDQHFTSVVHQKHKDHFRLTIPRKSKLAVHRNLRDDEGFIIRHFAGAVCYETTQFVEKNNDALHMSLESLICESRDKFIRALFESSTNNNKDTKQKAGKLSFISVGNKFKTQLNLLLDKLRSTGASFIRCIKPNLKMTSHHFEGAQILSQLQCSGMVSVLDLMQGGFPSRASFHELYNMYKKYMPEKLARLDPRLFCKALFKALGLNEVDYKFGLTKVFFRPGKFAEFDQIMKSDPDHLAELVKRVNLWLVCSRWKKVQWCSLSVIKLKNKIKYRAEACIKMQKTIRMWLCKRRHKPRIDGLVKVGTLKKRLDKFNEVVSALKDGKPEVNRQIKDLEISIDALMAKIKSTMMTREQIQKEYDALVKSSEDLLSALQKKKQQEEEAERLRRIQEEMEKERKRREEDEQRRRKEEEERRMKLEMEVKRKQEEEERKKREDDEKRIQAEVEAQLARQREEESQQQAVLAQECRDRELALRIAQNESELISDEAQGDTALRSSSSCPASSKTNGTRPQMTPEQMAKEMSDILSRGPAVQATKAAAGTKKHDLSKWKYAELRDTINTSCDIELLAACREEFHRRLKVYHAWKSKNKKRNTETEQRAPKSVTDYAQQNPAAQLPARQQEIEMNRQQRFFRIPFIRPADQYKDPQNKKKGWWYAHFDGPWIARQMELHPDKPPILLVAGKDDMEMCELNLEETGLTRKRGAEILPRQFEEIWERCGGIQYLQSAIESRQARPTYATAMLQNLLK
GST-fused MVI globular tail domain: residues 1046-1285 of D4A5I9
UniProt Q6IMY8: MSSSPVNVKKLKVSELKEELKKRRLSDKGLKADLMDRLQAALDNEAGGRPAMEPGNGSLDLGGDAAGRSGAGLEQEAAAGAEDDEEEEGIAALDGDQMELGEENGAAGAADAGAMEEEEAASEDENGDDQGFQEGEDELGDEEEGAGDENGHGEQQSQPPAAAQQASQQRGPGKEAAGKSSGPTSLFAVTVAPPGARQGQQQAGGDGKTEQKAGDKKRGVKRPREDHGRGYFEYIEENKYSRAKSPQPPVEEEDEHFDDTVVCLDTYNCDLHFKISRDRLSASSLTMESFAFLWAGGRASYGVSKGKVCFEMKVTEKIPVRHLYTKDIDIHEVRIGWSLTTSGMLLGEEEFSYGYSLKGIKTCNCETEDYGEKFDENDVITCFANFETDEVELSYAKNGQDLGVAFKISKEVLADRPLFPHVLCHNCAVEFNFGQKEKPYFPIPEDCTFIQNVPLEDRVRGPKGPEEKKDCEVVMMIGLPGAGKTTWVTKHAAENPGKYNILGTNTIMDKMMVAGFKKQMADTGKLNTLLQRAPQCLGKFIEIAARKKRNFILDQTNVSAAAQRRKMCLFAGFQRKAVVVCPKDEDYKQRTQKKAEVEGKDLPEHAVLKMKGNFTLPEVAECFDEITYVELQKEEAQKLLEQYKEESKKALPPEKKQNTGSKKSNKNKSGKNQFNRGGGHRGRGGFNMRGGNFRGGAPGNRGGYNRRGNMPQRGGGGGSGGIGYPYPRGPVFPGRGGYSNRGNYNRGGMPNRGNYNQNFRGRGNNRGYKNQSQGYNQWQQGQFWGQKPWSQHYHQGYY
UniProt P13383: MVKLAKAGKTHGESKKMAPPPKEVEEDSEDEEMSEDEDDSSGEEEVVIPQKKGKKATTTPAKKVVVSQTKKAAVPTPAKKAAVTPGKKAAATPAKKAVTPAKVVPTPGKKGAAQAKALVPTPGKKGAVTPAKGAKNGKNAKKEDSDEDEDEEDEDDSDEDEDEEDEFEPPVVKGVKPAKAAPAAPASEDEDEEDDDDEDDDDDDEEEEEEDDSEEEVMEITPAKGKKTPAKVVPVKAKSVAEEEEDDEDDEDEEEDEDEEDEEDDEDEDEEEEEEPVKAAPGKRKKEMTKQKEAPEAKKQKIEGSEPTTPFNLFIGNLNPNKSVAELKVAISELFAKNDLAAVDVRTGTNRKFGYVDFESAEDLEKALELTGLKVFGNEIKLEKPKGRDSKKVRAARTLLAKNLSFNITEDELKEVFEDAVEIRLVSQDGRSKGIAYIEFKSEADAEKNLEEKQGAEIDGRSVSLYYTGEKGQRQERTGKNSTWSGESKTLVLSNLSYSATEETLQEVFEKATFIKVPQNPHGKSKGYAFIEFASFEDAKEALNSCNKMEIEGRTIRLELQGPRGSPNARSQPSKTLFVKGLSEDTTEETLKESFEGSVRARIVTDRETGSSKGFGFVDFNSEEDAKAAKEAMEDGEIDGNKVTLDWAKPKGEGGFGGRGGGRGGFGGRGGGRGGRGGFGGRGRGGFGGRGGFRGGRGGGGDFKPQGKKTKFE
UniProt Q00438: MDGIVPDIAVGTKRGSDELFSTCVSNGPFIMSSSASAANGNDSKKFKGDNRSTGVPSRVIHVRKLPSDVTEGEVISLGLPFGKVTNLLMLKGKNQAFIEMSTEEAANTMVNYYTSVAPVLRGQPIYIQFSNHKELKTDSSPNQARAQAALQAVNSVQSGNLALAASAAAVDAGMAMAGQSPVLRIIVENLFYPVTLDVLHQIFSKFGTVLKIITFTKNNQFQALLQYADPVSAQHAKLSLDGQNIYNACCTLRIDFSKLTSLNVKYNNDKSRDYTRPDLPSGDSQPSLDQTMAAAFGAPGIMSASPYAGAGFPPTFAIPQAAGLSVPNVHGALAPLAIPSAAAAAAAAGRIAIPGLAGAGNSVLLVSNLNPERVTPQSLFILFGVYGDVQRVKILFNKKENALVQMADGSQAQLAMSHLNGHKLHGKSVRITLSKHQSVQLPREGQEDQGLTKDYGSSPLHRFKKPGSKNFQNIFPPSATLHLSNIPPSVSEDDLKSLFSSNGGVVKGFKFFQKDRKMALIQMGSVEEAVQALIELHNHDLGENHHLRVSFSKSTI
UniProt A7VJC2: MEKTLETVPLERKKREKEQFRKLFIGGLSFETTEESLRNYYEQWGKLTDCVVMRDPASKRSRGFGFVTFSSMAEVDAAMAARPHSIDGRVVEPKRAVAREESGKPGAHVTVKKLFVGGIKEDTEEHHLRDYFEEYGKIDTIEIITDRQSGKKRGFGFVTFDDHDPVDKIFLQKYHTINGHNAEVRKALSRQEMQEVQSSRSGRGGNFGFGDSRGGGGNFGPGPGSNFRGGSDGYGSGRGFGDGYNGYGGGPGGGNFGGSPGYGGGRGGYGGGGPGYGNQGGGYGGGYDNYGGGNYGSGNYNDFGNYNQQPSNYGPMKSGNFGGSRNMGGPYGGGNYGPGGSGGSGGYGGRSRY

B1: hnRNPL (protein, UniProt F1LQ48 1-623)
chain: MSRRLLPRAEKRRRRLEQRQQPDEQLRRAGAMVKMAAAGGGGGGGRYYGGGNEGGRAPKRLKTENAGDQHGGGGGGGSGAAGGGGGENYDDPHKTPASPVVHIRGLIDGVVEADLVEALQEFGPISYVVVMPKKRQALVEFEDVLGACNAVNYAADNQIYIAGHPAFVNYSTSQKISRPGDSDDSRSVNSVLLFTILNPIYSITTDVLYTICNPCGPVQRIVIFRKNGVQAMVEFDSVQSAQRAKASLNGADIYSGCCTLKIEYAKPTRLNVFKNDQDTWDYTNPNLSGQGDPGSNPNKRQRQPPLLGDHPAEYGEGRGFPSVDSRGSCAPARRPPRKFSPVLPLFPSHPPGGPHGGYHSHYHDEGYGPPPPHYEGRRMGPPVGGHRRGPSRYGPQYGHPPPPPPPPDYGPHADSPVLMVYGLDQSKMNCDRVFNVFCLYGNVEKVKFMKSKPGAAMVEMADGYAVDRAITHLNNNFMFGQKMNVCVSKQPAIMPGQSYGLEDGSCSYKDFSESRNNRFSTPEQAAKNRIQHPSNVLHFFNAPLEVTEENFFEICDELGVKRPTSVKVFSGKSERSSSGLLEWDSKSDALETLGFLNHYQMKNPNGPYPYTLKLCFSTAQHAS

What was measured:
[1] = target: Myosin VI (endogenous, PC12 cells) (rat (endogenous in PC12)) (UniProt D4A5I9); assay: co-IP; endogenous proteins from stimulated PC12 cell lysates; anti-MVI or anti-hnRNPU antibody (normal rabbit serum as control), A/G agarose beads, 4°C; 50 mM Tris pH 7.5, 150 mM NaCl, 2 mM EDTA, 0.2% Triton X-100, 2 mM MgCl2, 2 mM MgATP
[2] = target: GST-fused MVI globular tail domain (rat) (UniProt D4A5I9); assay: pull-down; GST-MVI globular tail or GST alone on Glutathione Sepharose 4B, PC12 cell homogenate; eluted fractions probed by immunoblot; only the target purified
[3] = target: Myosin VI (endogenous, PC12 cells) (rat (endogenous in PC12)) (UniProt D4A5I9); assay: proximity ligation; Duolink in situ PLA on fixed PC12 cells; rabbit anti-MVI with mouse anti-hnRNPU or anti-nucleolin; primary antibodies omitted as negative control

Molecule	binding [1]	binding [2]	binding [3]
SP120 /heterogeneous nuclear ribonucleoprotein U (from UniProt Q6IMY8 1-798)	binds	binds	binds
nucleolin, isoform CRA_d (from UniProt P13383 1-713)		binds	binds
PTBP1 (from UniProt Q00438 1-556)		no binding	
hnRNPA2/B1 (from UniProt A7VJC2 1-353)		binds	
B1		binds	
